# Out of some 52,000 compounds screened, about 1,700 (3.3%) were called active. Rule as the data show it: active = survival mostly below about 52% (no sharp cut-off); inactive = mostly above about 56%. Some of the results follow.
# System: Wild type
# Test: growth inhibition of S. aureus wild type versus tarO mutant, primary screen, teichoic acid synthesis inhibitors, RN4220, OD600 (AID 463173)
# Conditions: S. aureus RN4220 wild type/DeltatarO growth, OD600, 18 h, stronger effect = lower value, screened at 18.75 µg/mL (by protocol)
row,SMILES,survival
1,COCCN1Cc2cccc(C(=O)Nc3ccc(Cl)cc3Cl)c2C1=O,inactive: 78%
2,CC(C)NC(=O)Cn1nc(N2CCN(c3ccccc3)CC2)ccc1=O,inactive: 66%
3,COc1ccc2oc(-c3ccc(C)c(NC(=O)CSc4ccc(Cl)cc4)c3)nc2c1,inactive: 73%
4,CC(=O)N1c2ccc(S(=O)(=O)N3CCN(c4cccc(Cl)c4)CC3)cc2CC1C (stereo unspecified),inactive: 122%
5,CC(=O)N1CCc2c(sc3c2c(=O)n(CCc2ccccc2)c(=O)n3Cc2cccc(C)c2)C1,inactive: 94%
6,O=c1c(=O)n(Cc2c(F)cccc2Cl)ccn1Cc1ccccc1,inactive: 84%
7,COc1ccc(N2CCN(C3C(=O)c4ccccc4N3C(C)=O)CC2)cc1 (stereo unspecified),inactive: 68%
8,Cc1ccc(-c2c3c(=O)n(C)c(=O)n(C)c3cn2-c2cc(C)ccc2O)cc1,inactive: 74%
9,Cc1ccc(-n2ncc3c(=O)n(CC(=O)N(C)C)cnc32)cc1,inactive: 95%
10,COc1cccc(NC(=O)Cn2c(=O)n(CC(=O)NCCc3ccccc3)c(=O)c3sccc32)c1,inactive: 79%
11,Cc1c(Cl)cccc1NC(=O)CSc1nc(=O)n(Cc2cccnc2)c2c1CCC2,inactive: 143%
12,COC(=O)C1CCN(C(c2ccccc2)c2sc3nc(-c4ccco4)nn3c2O)CC1 (stereo unspecified),inactive: 65%
13,O=C1CC(c2nc(-c3ccccc3)no2)CN1c1ccc2c(c1)OCCO2 (stereo unspecified),inactive: 74%
14,Cc1cc(Cl)ccc1NS(=O)(=O)c1ccc2c(c1)CC(C)N2C(=O)C1CCC1 (stereo unspecified),inactive: 71%
15,Cc1c(Cl)cccc1-n1ncc(C(=O)Nc2ccc(F)cc2F)c1C1CCN(C(=O)OC(C)(C)C)CC1,inactive: 71%
16,Cc1ccc(Cn2cc(S(=O)(=O)c3ccc(C)cc3)c(=O)c3cc(F)c(N4CCCC4)cc32)cc1,inactive: 72%
17,CCOc1cccc(NC(=O)c2ccc(F)c(S(=O)(=O)N(CC)c3cccc(C)c3)c2)c1,inactive: 82%
18,Cc1ccc(CNC(=O)C2CCN(C(=O)c3cnn(-c4ccccc4)c3-n3cccc3)CC2)cc1,inactive: 92%
19,O=C(Nc1nnc(S(=O)(=O)N2CCCCCC2)s1)c1ccccc1Br,inactive: 52%

row,SMILES,survival
1,COc1ccc2c(c1)CC(C(=O)NCCN1CCN(c3cccc(C)c3C)CC1)CO2 (stereo unspecified),inactive: 88%
2,COc1ccc2c(c1)c1c(c(=O)n(Cc3ccccc3)c(=O)n1CC(=O)Nc1ccc(C)cc1C)n2C,active: -4%
3,CC(C)CCNC(=O)Nc1cc(C(=O)NCc2cccc(F)c2)ccc1N1CCCC1,inactive: 81%
4,O=C(C1CCN(S(=O)(=O)Cc2ccccc2)CC1)N1CCN(c2cccc(Cl)c2)CC1,inactive: 84%
5,Cc1ccc(NC(=O)C2CCCN(S(=O)(=O)c3c(C)n[nH]c3C)C2)cc1C (stereo unspecified),inactive: 127%
6,CSc1cccc(NC(=O)C2CCN(S(=O)(=O)c3ccc4[nH]c5c(c4c3)CCCCC5)CC2)c1,inactive: 72%
7,CCOC(=O)c1ccc(CN(Cc2ccc(C)cc2)S(=O)(=O)c2ccc(NC(C)=O)cc2)cc1,inactive: 45%
8,Cn1c(=O)[nH]c(=O)c2c1nc1n2CCCN1c1ccccc1,inactive: 103%
9,CCn1cc2nc(SCc3ccc(F)cc3)n(Cc3ccc(Cl)cc3)c(=O)c2n1,inactive: 80%
10,CCCS(=O)(=O)N1CC(=O)N(c2ccc(Cl)cc2)C(C)(C(=O)NC2CCCC2)C1 (stereo unspecified),inactive: 90%
11,COCCCNC(=O)CN1C(=O)CSc2ccc(S(=O)(=O)N3CCOCC3)cc21,inactive: 127%
12,CC(=O)Nc1ccc(Nc2nnc(-c3ccc(C)c(S(N)(=O)=O)c3)c3ccccc23)cc1,inactive: 141%
13,Cc1cc(C)cc(N(CC(=O)NCc2ccco2)C(=O)c2snc(C(N)=O)c2N)c1,inactive: 120%
14,O=C(NCc1ccc2c(c1)CCN2C(=O)c1ccccc1)c1ccco1,inactive: 87%
15,O=C(Nc1ccc(S(=O)(=O)N(Cc2ccccc2)c2ccccc2)cc1)c1ccc([N+](=O)[O-])cc1,inactive: 75%
16,Cc1ccc(NC(=O)C(=O)NCCc2csc3nc(-c4ccccc4C)nn23)cc1Cl,inactive: 82%
17,O=C(NC(=S)NC1CCSC1=O)c1ccco1 (stereo unspecified),inactive: 112%
18,Cc1ccc(NC(=O)c2oc3ccc(S(=O)(=O)N4CCC5(CC4)OCCO5)cc3c2C)c(C)c1,inactive: 143%
19,COCCn1c(SCC(=O)Nc2ccc(C(F)(F)F)cc2)nc2c([nH]c3ccccc32)c1=O,inactive: 77%

row,SMILES,survival
1,O=C(NCc1ccccc1Cl)c1ccc(NC(=O)N2CCSc3ncccc32)cc1,inactive: 87%
2,COc1cccc(N2CCN(C(=O)c3cc4c(=O)n(Cc5ccco5)ccc4nc3C)CC2)c1,inactive: 113%
3,COc1ccc(CCN2C(=O)C3CC=C(C)CC3C2=O)cc1OC (stereo unspecified),inactive: 116%
4,CCOC(=O)/C(C#N)=C/N1CCCc2ccccc21,inactive: 111%
5,Cc1[nH]c2ccc(Cl)cc2c(=O)c1CN1CCN(C)CC1,inactive: 109%
6,Cc1ccc(OC(=O)CCC(=O)N2CCc3ccccc32)cc1,inactive: 106%
7,NCCNC(=O)c1c(O)c2cccc3c2n(c1=O)CCC3,inactive: 102%
8,CCn1c(CCNC(=O)C2CCCO2)nnc1SC (stereo unspecified),inactive: 94%
9,CCC1=C(c2ccc(C)cc2)S(=O)(=O)N=C1N1CCC(C(=O)NCc2ccccc2Cl)CC1,inactive: 74%
10,Cc1ccc(C)c(N2CCN(CCCNC(=O)c3nnc(Cc4ccc(F)cc4Cl)o3)CC2)c1,inactive: 64%
11,CCOC(=O)c1cc(S(=O)(=O)N2CCN(c3ccc(F)cc3)CC2)[nH]n1,inactive: 80%
12,CCCN(CCC)CCNC(=O)C1CCCN(S(=O)(=O)c2cccc3nsnc23)C1 (stereo unspecified),inactive: 77%
13,CCCCCOC(=O)c1ccc(OC(=O)c2sc3ncn(Cc4cccc(F)c4)c(=O)c3c2C)cc1,inactive: 76%
14,C=CCn1c(-c2ccccc2)c[nH]c1=S,inactive: 109%
15,COc1ccc(OC)c(NC(=O)N2CCC(CN3CCCCC3)CC2)c1,inactive: 70%
16,COc1ccc(OC)c(CNc2sc3c(c2C(=O)Nc2cc(OC)ccc2OC)CCCC3)c1,inactive: 72%
17,Cc1nc(SCc2ccc(Cl)cc2)c(C#N)c(C)c1Cl,inactive: 32%
18,CCOc1cc2[nH]c(=O)n(CCCC(=O)N3CCN(c4cccc(Cl)c4)CC3)c(=O)c2cc1OCC,inactive: 71%

# Reference: PubChem BioAssay AID463173 (ICCB-Longwood Screening Facility, Harvard Medical School, 2010)
